Data published in article PMC12820563, “FoxP3 forms a head-to-head dimer in vivo and stabilizes its multimerization on adjacent microsatellites”.
This is one part of the list.

Each sequence was assayed against T1, MBP-FoxP1dN (Mus musculus, UniProt P58462 326-579) (assay: PD-seq (MBP pull-down with sequencing); 20 mM Tris-HCl pH 7.5, 100 mM NaCl, 1.5 mM MgCl2, 0.4 uM protein, 0.1 uM dsDNA library, 30 min, room temperature, amylose pull-down; high values mean tight binding). Conditions: protein: recombinant; tags: His6-MBP; chain copies: 2; dsDNA, one strand shown.
T1 sequence: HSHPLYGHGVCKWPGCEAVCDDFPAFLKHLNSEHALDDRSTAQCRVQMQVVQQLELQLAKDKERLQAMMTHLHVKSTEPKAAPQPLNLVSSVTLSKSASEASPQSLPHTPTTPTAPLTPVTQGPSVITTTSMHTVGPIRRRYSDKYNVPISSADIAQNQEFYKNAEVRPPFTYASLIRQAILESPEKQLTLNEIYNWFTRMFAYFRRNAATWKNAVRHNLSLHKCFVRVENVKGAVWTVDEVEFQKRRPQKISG
Method in brief: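 In Tris pH 7.5 buffer with NaCl and MgCl2, 0.4 µM His6-MBP-tagged mouse FoxP3 or FoxP1 fragment lacking the N-terminus, from E. coli, met 0.1 µM Klenow-filled double-stranded degenerate DNA library for 30 min at room temperature. Three washes on amylose resin followed capture of the complexes, then proteinase K release of DNA, PCR barcoding and Illumina sequencing. Binding is taken as pooled-replicate reads-per-million enrichment of pull-down relative to input.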

Sequence	binding signal
GATGATTGTTCTCCCAGCTGATGAATTAACTATGTCGAGTAAACAAATTTTCCTAATCTTTCTGTTCAAGCGCCATCTAC	0.956 RPM ratio (pull-down/input)
GATGATTGTTCTCCCAGCTGATGAATTTAATACTTCGAGTAAACAAATTTTCCTAATCTTTCTGTTCAAGCGCCATCTAC	0.972 RPM ratio (pull-down/input)
GATGATTGTTCTCCCAGCTGATGAATTGGATAGTTCGAGTAAACAAATTTTCCTAATCTTTCTGTTCAAGCGCCATCTAC	0.857 RPM ratio (pull-down/input)
GATGATTGTTCTCCCAGCTGATGAATTGCTGGTCTCGAGTAAACAAATTTTCCTAATCTTTCTGTTCAAGCGCCATCTAC	0.913 RPM ratio (pull-down/input)
GATGATTGTTCTCCCAGCTGATGAATTTGTGAGTTCGAGTAAACAAATTTTCCTAATCTTTCTGTTCAAGCGCCATCTAC	1.17 RPM ratio (pull-down/input)
GATGATTGTTCTCCCAGCTGATGAATTGGGACTTTCGAGTAAACAAATTTTCCTAATCTTTCTGTTCAAGCGCCATCTAC	0.838 RPM ratio (pull-down/input)
GATGATTGTTCTCCCAGCTGATGAATTAAAATTCTCGAGTAAACAAATTTTCCTAATCTTTCTGTTCAAGCGCCATCTAC	0.809 RPM ratio (pull-down/input)
GATGATTGTTCTCCCAGCTGATGAATTTCTTTTGTCGAGTAAACAAATTTTCCTAATCTTTCTGTTCAAGCGCCATCTAC	0.952 RPM ratio (pull-down/input)
GATGATTGTTCTCCCAGCTGATGAATTAGGCACATCGAGTAAACAAATTTTCCTAATCTTTCTGTTCAAGCGCCATCTAC	1.05 RPM ratio (pull-down/input)
GATGATTGTTCTCCCAGCTGATGAATTTAAAAGATCGAGTAAACAAATTTTCCTAATCTTTCTGTTCAAGCGCCATCTAC	0.894 RPM ratio (pull-down/input)
GATGATTGTTCTCCCAGCTGATGAATTGCTTGATTCGAGTAAACAAATTTTCCTAATCTTTCTGTTCAAGCGCCATCTAC	1.05 RPM ratio (pull-down/input)
GATGATTGTTCTCCCAGCTGATGAATTACTCCCTTCGAGTAAACAAATTTTCCTAATCTTTCTGTTCAAGCGCCATCTAC	1.01 RPM ratio (pull-down/input)
GATGATTGTTCTCCCAGCTGATGAATTAAGTTGGTCGAGTAAACAAATTTTCCTAATCTTTCTGTTCAAGCGCCATCTAC	0.967 RPM ratio (pull-down/input)
GATGATTGTTCTCCCAGCTGATGAATTGGTGCTCTCGAGTAAACAAATTTTCCTAATCTTTCTGTTCAAGCGCCATCTAC	0.869 RPM ratio (pull-down/input)
GATGATTGTTCTCCCAGCTGATGAATTCCGGCTCTCGAGTAAACAAATTTTCCTAATCTTTCTGTTCAAGCGCCATCTAC	0.75 RPM ratio (pull-down/input)
GATGATTGTTCTCCCAGCTGATGAATTTGTACGCTCGAGTAAACAAATTTTCCTAATCTTTCTGTTCAAGCGCCATCTAC	1.13 RPM ratio (pull-down/input)

Sequence	binding signal
GATGATTGTTCTCCCAGCTGATGAATTTAGTAACTCGAGTAAACAAATTTTCCTAATCTTTCTGTTCAAGCGCCATCTAC	1.13 RPM ratio (pull-down/input)
GATGATTGTTCTCCCAGCTGATGAATTGAGTCGATCGAGTAAACAAATTTTCCTAATCTTTCTGTTCAAGCGCCATCTAC	0.913 RPM ratio (pull-down/input)
GATGATTGTTCTCCCAGCTGATGAATTGACGCTATCGAGTAAACAAATTTTCCTAATCTTTCTGTTCAAGCGCCATCTAC	1.15 RPM ratio (pull-down/input)
GATGATTGTTCTCCCAGCTGATGAATTTTAGCCTTCGAGTAAACAAATTTTCCTAATCTTTCTGTTCAAGCGCCATCTAC	0.931 RPM ratio (pull-down/input)
GATGATTGTTCTCCCAGCTGATGAATTCAAGTATTCGAGTAAACAAATTTTCCTAATCTTTCTGTTCAAGCGCCATCTAC	1.06 RPM ratio (pull-down/input)
GATGATTGTTCTCCCAGCTGATGAATTATCGCAATCGAGTAAACAAATTTTCCTAATCTTTCTGTTCAAGCGCCATCTAC	1.35 RPM ratio (pull-down/input)
GATGATTGTTCTCCCAGCTGATGAATTATAGAGGTCGAGTAAACAAATTTTCCTAATCTTTCTGTTCAAGCGCCATCTAC	0.854 RPM ratio (pull-down/input)
GATGATTGTTCTCCCAGCTGATGAATTGAATCGCTCGAGTAAACAAATTTTCCTAATCTTTCTGTTCAAGCGCCATCTAC	0.784 RPM ratio (pull-down/input)
GATGATTGTTCTCCCAGCTGATGAATTCGCAGTCTCGAGTAAACAAATTTTCCTAATCTTTCTGTTCAAGCGCCATCTAC	0.812 RPM ratio (pull-down/input)
GATGATTGTTCTCCCAGCTGATGAATTTACACGTTCGAGTAAACAAATTTTCCTAATCTTTCTGTTCAAGCGCCATCTAC	1.32 RPM ratio (pull-down/input)
GATGATTGTTCTCCCAGCTGATGAATTAATGCTATCGAGTAAACAAATTTTCCTAATCTTTCTGTTCAAGCGCCATCTAC	1.38 RPM ratio (pull-down/input)
GATGATTGTTCTCCCAGCTGATGAATTTCGGATTTCGAGTAAACAAATTTTCCTAATCTTTCTGTTCAAGCGCCATCTAC	0.834 RPM ratio (pull-down/input)
GATGATTGTTCTCCCAGCTGATGAATTAAGATTCTCGAGTAAACAAATTTTCCTAATCTTTCTGTTCAAGCGCCATCTAC	0.789 RPM ratio (pull-down/input)
GATGATTGTTCTCCCAGCTGATGAATTAGAATGTTCGAGTAAACAAATTTTCCTAATCTTTCTGTTCAAGCGCCATCTAC	0.908 RPM ratio (pull-down/input)
GATGATTGTTCTCCCAGCTGATGAATTGGACACGTCGAGTAAACAAATTTTCCTAATCTTTCTGTTCAAGCGCCATCTAC	0.927 RPM ratio (pull-down/input)
